# Structures can show the parent of a compound that is named as a salt. ± gives the standard deviation of the averaged measurements. Over roughly 3,100 compounds, “mean cytoplasmic OPP incorporation (global translation) relative to DMSO” has its median near 100; the lowest 2% begin near 56. Some of the results follow.
# System: U2OS
# Assay: mean cytoplasmic OPP incorporation (global translation) relative to DMSO (% of DMSO); higher = more protein synthesis
# Conditions: 10 µM; 24 h
# Description: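 Primary image-based screen in U2OS cells: compounds at 10 uM for 24 h, then a 1 h o-propargyl-puromycin (OPP) pulse, click labelling, and high-throughput microscopy. Mean cytoplasmic OPP intensity and nuclei count were normalised to DMSO wells within each plate (DMSO = 100) and averaged over triplicate plates.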
row,Structure (SMILES),mean cytoplasmic OPP incorporation
1,"CCC1(c2ccc(N)cc2)CCC(=O)NC1=O (stereo unspecified) [Glutethimide, para-amino]",98.8
2,CCN(C)C(=O)Oc1cccc([C@H](C)N(C)C)c1 [Rivastigmine],114
3,CC[C@@]1([C@@H]2O[C@@H]([C@H]3O[C@@](O)(CO)[C@H](C)C[C@@H]3C)C[C@@H]2C)CC[C@H]([C@]2(C)CC[C@]3(C[C@H](O)[C@@H](C)[C@@H]([C@@H](C)[C@@H](OC)[C@H](C)C(=O)O)O3)O2)O1 [Monensin sodium salt (Coban)],103
4,CC[C@@]1([C@@H]2O[C@@H]([C@H]3O[C@@](O)(CO)[C@H](C)C[C@@H]3C)C[C@@H]2C)CC[C@H]([C@]2(C)CC[C@]3(C[C@H](O)[C@@H](C)[C@@H]([C@@H](C)[C@@H](OC)[C@H](C)C(=O)O)O3)O2)O1 [Monensin sodium salt],107
5,C[C@@H]1O[C@@H](O[C@H]2C[C@@H](O)[C@]3(CO)[C@H]4[C@H](O)C[C@]5(C)[C@@H](C6=CC(=O)OC6)CC[C@]5(O)[C@@H]4CC[C@]3(O)C2)[C@H](O)[C@H](O)[C@H]1O [Ouabain],47 ± 1.8
6,CN1[C@@H]2CC[C@H]1C[C@@H](OC1c3ccccc3CCc3ccccc31)C2 [Deptropine citrate],113
7,Cc1nc(N)sc1CCN [Amthamine dihydrobromide],107
8,"NCC(O)c1ccc(O)cc1 (racemic) [(+,-)-Octopamine hydrochloride]",104
9,CCCOc1ccc2[nH]cc(C3=CCNCC3)c2n1,103
10,COc1ccc(Cc2nccc3cc(OC)c(OC)cc23)cc1OC [Papaverine hydrochloride],97
11,CCC1(CC)C(=O)C=CNC1=O [Pyrithyldione],100
12,C[C@]12CC[C@H]3[C@@H](CC[C@@]45O[C@@H]4C(O)=C(C#N)C[C@]35C)[C@@H]1CC[C@@H]2O [Trilostane],104
13,O=C1CSC(c2ccccc2Cl)c2cc(Cl)ccc2N1 (stereo unspecified),101
14,C=C(C)[C@H]1Cc2c(ccc3c2O[C@@H]2COc4cc(OC)c(OC)cc4[C@@H]2C3=O)O1 [Rotenone],106
15,COC(=O)C1=CCCN(C)C1 [Arecoline],102
16,CC(CN)CC(=O)O (stereo unspecified) [3-Methyl-GABA],102
17,Fc1ccc(C(OCCN2CCN(CCCc3ccccc3)CC2)c2ccc(F)cc2)cc1,99.39 ± 0.44
18,CC(C)(C)NCC(O)c1cc(Cl)c(N)c(Cl)c1 (stereo unspecified) [Clenbuterol hydrochloride],103
19,CC(C)(c1ccc(OCC2CO2)cc1)c1ccc(OCC2CO2)cc1 (stereo unspecified),98.1 ± 1.6
20,CC(C)N(CCNC(=O)CN1CCCC1=O)C(C)C [Pramiracetam],99.2
21,CNCC(=O)c1ccc(O)c(O)c1 [Adrenalone HCl],98.9
22,CCCN(CCC)C1CCc2ccc(O)cc2C1 (stereo unspecified) [7-Hydroxy-DPAT hydrobromide],100

row,Structure (SMILES),mean cytoplasmic OPP incorporation
1,C[C@](O)(COc1ccc(C#N)cc1)C(=O)Nc1ccc(C#N)c(C(F)(F)F)c1 [Ostarine (MK-2866)],95.5
2,CC(N)Cc1c[nH]c2ccc(O)cc12 (stereo unspecified) [_-Methyl-5-hydroxytryptamine maleate],108
3,Oc1ccc2c3c1O[C@H]1c4c(c5ccccc5n4Cc4ccccc4)C[C@@]4(O)C(C2)N(CC2CC2)CC[C@]314 [N-Benzylnaltrindole hydrochloride],111
4,"BrC1C(Br)C(Br)C(Br)C(Br)C1Br (stereo unspecified) [1,2,3,4,5,6-Hexabromocyclohexane]",97.7
5,COc1ccc(CCN2CCC(Nc3nc4ccccc4n3Cc3ccc(F)cc3)CC2)cc1 [Astemizole],112 ± 2.2
6,CC(=O)Nc1ccc(OC[C@](C)(O)C(=O)Nc2ccc([N+](=O)[O-])c(C(F)(F)F)c2)cc1 [Andarine (GTX-007)],94.5
7,Oc1cc2c(cc1O)[C@H]1c3ccccc3CN[C@@H]1CC2 (racemic) [Dihydrexidine hydrochloride],101
8,CC(=O)O[C@H]1C[C@H](O[C@H]2[C@@H](O)C[C@H](O[C@H]3[C@@H](O)C[C@H](O[C@H]4CC[C@@]5(C)[C@H](CC[C@@H]6[C@@H]5C[C@@H](O)[C@]5(C)[C@@H](C7=CC(=O)OC7)CC[C@]65O)C4)O[C@@H]3C)O[C@@H]2C)O[C@H](C)[C@H]1O[C@@H]1O[C@H](CO)[C@@H](O)[C@H](O)[C@H]1O [Lanatoside C],27.8
9,C[C@]12N[C@H](Cc3ccccc31)c1ccccc12 [Dizocilpine maleate],98.7
10,C[N+]1([O-])[C@@H]2C[C@@H](OC(=O)[C@H](CO)c3ccccc3)C[C@H]1[C@@H]1O[C@@H]12 (stereo partly specified) [Scopolamin-N-oxide hydrobromide],96.7
11,CCC(=O)CCCCC[C@@H]1NC(=O)[C@H]2CCCCN2C(=O)[C@H]([C@@H](C)CC)NC(=O)[C@H](Cc2cn(OC)c3ccccc23)NC1=O [Apicidin],72.9 ± 6.7
12,CCN(CC)C(C)C(=O)c1ccccc1 (stereo unspecified) [Amfepramone hydrochloride],99.7
13,COC(=O)/C=C/C(=O)N[C@@H]1CC[C@@]2(O)[C@H]3Cc4ccc(O)c5c4[C@@]2(CCN3CC2CC2)[C@H]1O5 [_-Funaltrexamine hydrochloride],93.8
14,O[C@@H]1CCCC[C@H]1N1CCC(c2ccccc2)CC1 [L(-)-vesamicol hydrochloride],104
15,O=C1CCCN1CC#CCN1CCCC1 [Oxotremorine sesquifumarate],101
16,CC(C)n1cnc2c(C(=O)N[C@H]3CN4CCC3CC4)cc(Cl)cc21,106
17,Oc1cc(Cl)ccc1Oc1ccc(Cl)cc1Cl [Triclosan],116
18,CC1(C)C(C=C(Cl)Cl)C1C(=O)OC(C#N)c1cccc(Oc2ccccc2)c1 (stereo unspecified) [Cypermethrin],105
19,CCC(C)C1O[C@]2(C=C[C@@H]1C)C[C@@H]1CC(C/C=C(\C)[C@@H](OC3C[C@H](OC)[C@@H](OC4C[C@H](OC)[C@@H](O)[C@H](C)O4)[C@H](C)O3)[C@@H](C)/C=C/C=C3\COC4[C@H](O)C(C)=CC(C(=O)O1)[C@]34O)O2 (stereo partly specified) [Avermectin B1a],104
20,c1cc(Cc2cnc[nH]2)ccn1 [Immethridine dihydrobromide],88.1
21,CC1=C(O)C(=O)C=C2C1=CC=C1[C@@]2(C)CC[C@@]2(C)[C@@H]3C[C@](C)(C(=O)O)CC[C@]3(C)CC[C@]12C [Celastrol],100
22,CC(=O)Oc1ccc(/C=C/c2cc(OC(C)=O)cc(OC(C)=O)c2)cc1 [Triacetylresveratrol],103

row,Structure (SMILES),mean cytoplasmic OPP incorporation
1,OC1CCCCC1N1CCC(c2ccccc2)CC1 (racemic) [(±)-Vesamicol hydrochloride],103
2,CCCN1C[C@H](CSC)C[C@@H]2c3cccc4[nH]cc(c34)C[C@H]21 [Pergolide mesylate],102.7 ± 1
3,N.N.[Cl][Pt][Cl] [Cisplatin],106
4,Oc1ccc2c3c1O[C@H]1c4[nH]c5c(c4C[C@@]4(O)[C@@H](C2)N(CC2CC2)CC[C@]314)C[C@@]1(O)[C@H]2Cc3ccc(O)c4c3[C@@]1(CCN2CC1CC1)[C@H]5O4 [nor-Binaltorphimine dihydrochloride],102
5,"C[N+]1(C)CCc2cc3c(cc2C1C1OC(=O)c2c1ccc1c2OCO1)OCO3 (single isomer, unassigned; (-)) [(-)-Bicuculline methobromide]",115
6,C[C@H]1CCC/C=C/[C@@H]2C[C@H](O)C[C@H]2[C@H](O)/C=C/C(=O)O1 [Brefeldin A],75 ± 10
7,CN1c2ccccc2C(NCCCCCCC(=O)O)c2ccc(Cl)cc2S1(=O)=O (stereo unspecified) [Tianeptine sodium],103
8,CN1c2ccccc2C(NCCCCCCC(=O)O)c2ccc(Cl)cc2S1(=O)=O (stereo unspecified) [Tianeptine],100
9,CN1CCN(c2ccc([N+](=O)[O-])c3no[n+]([O-])c23)CC1,98.2
10,CCC(=O)O[C@@](Cc1ccccc1)(c1ccccc1)[C@@H](C)CN(C)C [Levopropoxyphene napsylate],116
11,N#Cc1nn(-c2c(Cl)cc(C(F)(F)F)cc2Cl)c(N)c1[S+]([O-])C(F)(F)F (stereo unspecified) [Fipronil],97.1
12,CC[N+](CC)(CCCNC1=CC(=O)C(NCCC[N+](CC)(CC)Cc2ccccc2)=CC1=O)Cc1ccccc1 [Benzoquinonium dibromide],101
13,CC(C)C[C@@H](N)C1(c2ccc(Cl)cc2)CCC1,91.4
14,"CC[C@@]1(O)C(=O)OCc2c1cc1n(c2=O)Cc2cc3ccccc3nc2-1 [Camptothecine (S,+)]",59.4
15,CC[C@@]1(O)C(=O)OCc2c1cc1n(c2=O)Cc2cc3ccccc3nc2-1 [Camptothecin],80.8
16,CO/C1=C\C(C)=C\[C@@H](C)[C@@H](O)[C@@H](C)C/C(C)=C/C=C/[C@H](OC)[C@@H]([C@@H](C)[C@@H](O)[C@H](C)[C@@]2(O)C[C@@H](O)[C@H](C)[C@@H](C(C)C)O2)OC1=O [Bafilomycin A1],111.4 ± 0.73
17,NC1(c2ccccc2Cl)CCCCC1=O (stereo unspecified) [Norketamine hydrochloride],98.9
18,O=C1NC(=O)c2c1c1c3ccccc3[nH]c1c1[nH]c3ccccc3c21 [Arcyriaflavin A],82.7
19,COc1cccc(C2(O)CCCCC2CN(C)C)c1 (stereo unspecified) [Tramadol hydrochloride],96.8
20,CC(CCc1ccccc1)NC(C)C(O)c1ccc(O)cc1 (stereo unspecified) [Nylidrin],97.4
21,CC(=O)OC1CN2CCC1CC2 (stereo unspecified) [Aceclidine Hydrochloride],100
22,CCCN(C/C=C/I)C1CCc2ccc(O)cc2C1 (stereo unspecified) [7-Hydroxy-PIPAT maleate],99.6

# — the supplement of paper PMC8183993
